# From PubChem BioAssay AID1721 (National Center for Advancing Translational Sciences (NCATS), 2009)
# The campaign covered roughly 290,000 compounds. About 1,100 (0.38%) were called active. Inconclusive means that the source gave no clear call. Such entries were picked first, then a sample of the others. Calls follow the shape of the dose curve; as a rule, active = well fitted inhibition curve with a large enough effect; inconclusive = small, poorly fitted or top-dose-only effect, or another doubt; inactive = no such curve, though single readings can be large or run the other way. Potencies of inconclusive entries are doubtful fits and often do not repeat.
# Molecular target: Pyruvate kinase (Leishmania mexicana) (UniProt Q27686)
# Sequence of UniProt Q27686 (Q27686 whole entry, looked up): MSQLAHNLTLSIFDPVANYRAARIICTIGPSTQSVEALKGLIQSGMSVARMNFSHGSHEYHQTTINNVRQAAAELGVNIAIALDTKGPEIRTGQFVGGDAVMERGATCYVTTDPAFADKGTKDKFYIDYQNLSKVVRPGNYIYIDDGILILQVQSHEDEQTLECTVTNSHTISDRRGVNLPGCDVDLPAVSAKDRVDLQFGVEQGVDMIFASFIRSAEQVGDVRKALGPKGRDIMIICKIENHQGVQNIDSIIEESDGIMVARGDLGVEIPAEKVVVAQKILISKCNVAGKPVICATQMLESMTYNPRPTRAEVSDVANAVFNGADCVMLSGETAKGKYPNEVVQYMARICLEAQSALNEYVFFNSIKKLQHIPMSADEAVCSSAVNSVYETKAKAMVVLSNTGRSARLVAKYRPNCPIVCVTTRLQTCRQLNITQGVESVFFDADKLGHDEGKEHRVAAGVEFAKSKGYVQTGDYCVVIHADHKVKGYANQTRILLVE
# Experiment: qHTS Assay for Inhibitors of Leishmania Mexicana Pyruvate Kinase (LmPK)
# Details: purified LmPK, Kinase-Glo ATP luminescence, 1 h; series mostly up to 57.5 µM
# Method in brief: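 Pyruvate kinase activity monitored as ATP production (luciferase luminescence). Conditions: 0.1 nM enzyme, 0.5 mM PEP, 0.1 mM ADP, 1 h, RT; normalized against uninhibited and no-enzyme wells.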
# Potency is read from the fitted curve at half-maximal effect; tags tell the direction and shape of the fitted curve.
row,SMILES,Potency
1,CC(=O)Oc1ccc(C(=O)Nc2ccc3c(c2)OCCO3)cc1,"inconclusive: 15.8 µM [falling, partial curve]"
2,O=C(Nc1ccccc1)c1ccc(CSc2ccccn2)cc1,active: 12.6 µM
3,Cc1sc2nc3n(c(=O)c2c1C)Cc1ccccc1-3,"inconclusive: 14.1 µM [falling, partial curve]"
4,O=C(Nc1nc2ccccc2[nH]1)c1ccccc1OC(F)F,"inconclusive: 17.8 µM [falling, partial curve]"
5,Cc1ccc(-n2c(-c3ccccc3)c[nH]c2=S)cc1,"inconclusive: 10 µM [falling, partial curve]"
6,Cn1c(=O)[nH]c(Nc2ccccc2)c([N+](=O)[O-])c1=O,inactive
7,O=C(N/N=C/c1cccs1)c1cc(-c2ccc3ccccc3c2)n[nH]1,inactive
8,CCOc1ccc(NC(=O)c2nccnc2CO)cc1,"inconclusive: 25.1 µM [falling, partial curve]"
9,Cc1ccc2c(c1)c1ccc3c(c1n2C)C(=O)C=CC3=O,"inconclusive: 3.98 µM [falling, full curve]"
10,COc1ccc(N=CC2=C(O)c3ccccc3C2=O)cc1,active: 3.16 µM
11,Cc1nc(-c2ccc(NC(=O)c3ccccc3C)cc2)cs1,"inconclusive: 25.1 µM [falling, single point]"
12,CC(C)(C)c1ccc(-c2n[nH]c(=S)n2-c2ccccc2)cc1,"inconclusive: 39.8 µM [falling, single point]"
13,CCN(CC)CCn1c(=S)[nH]c2cc3c(cc2c1=O)OCO3,inactive
14,COc1cc(/C=C2\SC(c3ccc(C)cc3)=NC2=O)cc(OC)c1OC,"inconclusive: 31.6 µM [falling, single point]"
15,Cc1cc(=O)[nH]c(N/N=C/c2sccc2C)n1,"inconclusive: 20 µM [falling, partial curve]"
16,Cc1ccc(Cn2ccc(NC(=O)c3cc(-c4ccc(F)cc4)on3)n2)cc1,inactive
17,COc1ncnc2sc(-c3ccccc3)cc12,active: 12.6 µM
18,CC1CCCC(C)N1C(=O)c1cc(-c2ccco2)on1 (centres undefined),inactive
19,Fc1cccc(NC(=S)NCc2ccc(Cl)cc2)c1,inactive
20,COc1cccc(-c2noc(-c3cccnc3)n2)c1,"inconclusive: 17.8 µM [falling, partial curve]"
21,Cc1ccc(C(=O)O/N=C(\N)c2ccc(Br)cc2)cc1C,inactive
22,COc1cc(NS(=O)(=O)c2ccc(Nc3nc(-c4cccc([N+](=O)[O-])c4)cs3)cc2)nc(OC)n1,inactive
23,c1ccc(-c2nc(-c3ccncc3)n[nH]2)nc1,"inconclusive: 15.8 µM [falling, partial curve]"
24,Cc1occc1C(=O)N/N=C/c1cnn(C)c1C,active: 15.8 µM
25,Cc1cccc(-n2c(CCn3nc(C)c([N+](=O)[O-])c3C)n[nH]c2=S)c1,"inconclusive: 14.1 µM [falling, partial curve]"
26,CCOC(=O)C1=C(CS(=O)(=O)c2ccc(F)cc2)NC(=O)NC1c1ccc(O)c(O)c1 (centres undefined),"inconclusive: 4.47 µM [falling, partial curve]"
27,COc1ccc2nc(Nc3ccccc3OC)sc2c1,active: 17.8 µM

row,SMILES,Potency
1,Cc1ccc(C(=O)O/N=C(\N)c2ccccn2)c(C)c1,active: 6.31 µM
2,O=C(NNc1ccc(C(F)(F)F)cc1[N+](=O)[O-])c1ccc(NS(=O)(=O)c2ccc(F)cc2)cc1,"inconclusive: 17.8 µM [falling, partial curve]"
3,Cc1ccsc1/C=C1/SC(N2CCOCC2)=NC1=O,"inconclusive: 15.8 µM [falling, partial curve]"
4,COc1ccc(C(=O)NC(=S)NNC(=O)c2cnccn2)cc1,inactive
5,CCCN1C(=O)/C(=C\C=C2/C=CN(CC)c3ccccc32)SC1=S,"inconclusive: 12.6 µM [falling, partial curve]"
6,Cc1[nH]cnc1C(=O)N/N=C/c1c(Cl)cccc1Cl,"inconclusive: 28.2 µM [falling, single point]"
7,O=C(O)/C=C/c1cccc(NC(=O)c2ccccc2)c1,"inconclusive: 25.1 µM [falling, partial curve]"
8,O=C1C(c2ccncc2)=C(O)c2ccccc21,"inconclusive: 28.2 µM [falling, partial curve]"
9,O=C(NC1=NCCS1)c1cc2ccccc2o1,"inconclusive: 25.1 µM [falling, partial curve]"
10,CCOC(=O)c1sc(NC(=O)c2ccc(Br)o2)cc1C,inactive
11,O=C(CCNS(=O)(=O)c1cccc2nsnc12)NCCC1=CCCCC1,inactive
12,COc1ccc(C(=O)Nc2cccc(C(C)=O)c2)cc1OC,"inconclusive: 22.4 µM [falling, single point]"
13,COc1ccc(S(=O)(=O)/N=C2/C=CC(=O)C(C)=C2C)cc1,"inconclusive: 31.6 µM [falling, single point]"
14,COc1ccc(NC(=O)NCCCCc2ccccc2)cc1,inactive
15,COc1ccc(/C=C/C(=O)c2ccc3c(c2)OCO3)c(OC)c1,"inconclusive: 25.1 µM [falling, single point]"
16,O=[N+]([O-])c1ccc2nc(-c3ccccc3)[nH]c2c1,"inconclusive: 15.8 µM [falling, partial curve]"
17,COCCNC(=O)c1ccc2c3n(nc2c1)-c1ccccc1CO3,"inconclusive: 17.8 µM [falling, partial curve]"
18,COc1ccc2nc(NC(=O)c3cc(C)oc3C)sc2c1,active: 25.1 µM
19,Cc1ccc(C)c(-n2cc[nH]c2=S)c1,"inconclusive: 14.1 µM [falling, partial curve]"
20,CCOc1cc(Cl)c(NC(C)=O)cc1OCC,inactive
21,CC(C)Cn1c(-c2csc3ccccc23)n[nH]c1=S,active: 14.1 µM
22,COc1cccc(CNC(=O)CCC2CCCN(C(=O)c3cc(C)on3)C2)c1 (centres undefined),inactive
23,S=c1[nH]nc(Cn2c(-c3ccccn3)nc3ccccc32)n1-c1ccc2c(c1)OCCO2,"inconclusive: 14.1 µM [falling, partial curve]"
24,O=C1N/C(=C\c2nc3ccccc3s2)c2ccccc21,"inconclusive: 25.1 µM [falling, single point]"
25,Cc1onc(-c2ccccc2)c1-c1nnc(-c2ccccc2C(F)(F)F)o1,inactive
26,Cc1ccccc1-n1c(-c2ccoc2C)n[nH]c1=S,active: 28.2 µM
27,CC(C)(C)c1cn(-c2ccc(F)cc2)c(=S)[nH]1,"inconclusive: 25.1 µM [falling, partial curve]"

row,SMILES,Potency
1,CN(C)c1ccc(NC(=O)CSCc2nc3c(nnn3Cc3ccc(F)cc3)c(=O)[nH]2)cc1,"inconclusive: 39.8 µM [falling, single point]"
2,c1c2c(cc3sc(N4CCCCC4)nc13)OCO2,active: 7.08 µM
3,CN(C)c1ccc(/C=C(\C#N)c2ccccn2)cc1,active: 10 µM
4,S=c1[nH]cc(-c2ccccc2)n1-c1ccccc1,active: 3.16 µM
5,COc1ccc2c(c1)OC/C(=C/c1cccs1)C2=O,"inconclusive: 25.1 µM [falling, partial curve]"
6,Cc1[nH]n(C(N)=S)c(=O)c1N=Nc1cc(-c2ccc(Br)cc2)[nH]n1,inactive
7,O=C(Nc1nnc(C2CC2)s1)c1ccccn1,active: 25.1 µM
8,Oc1cccc(/C=N/c2c(-c3ccco3)nc3ccccn23)c1,"inconclusive: 25.1 µM [falling, single point]"
9,Cc1ccc(OCc2n[nH]c(=S)n2-c2ccccc2)cc1C,"inconclusive: 31.6 µM [falling, single point]"
10,Cc1ccc(NC(=O)CCC(=O)NNC(=O)c2cccs2)cc1C,inactive
11,O=C(O)c1ccc(-c2nc3ccccc3[nH]2)cc1,"inconclusive: 15.8 µM [falling, partial curve]"
12,CC(C)OC(=O)Nc1ccc2c(c1)N(C(=O)N1CCN(C)CC1)c1ccccc1CC2,"inconclusive: 25.1 µM [falling, partial curve]"
13,COC(=O)C1=C(C(=O)OC)C(c2ccc(OC)c(OC)c2)c2sc(=O)[nH]c2S1 (centres undefined),"inconclusive: 39.8 µM [falling, single point]"
14,CCCc1cc(-c2n[nH]c(=S)n2CC)cs1,"inconclusive: 25.1 µM [falling, partial curve]"
15,O=C1C=CC(=O)N1c1cccc(-c2ccccc2)c1,"inconclusive: 22.4 µM [falling, partial curve]"
16,CN(C)S(=O)(=O)c1cccc(C(=O)N=C2N=C3C=CC(Cl)=CN3Cc3ccccc32)c1,"inconclusive: 25.1 µM [falling, partial curve]"
17,CCCC1=Nc2cc(C(=O)NCCCOCC)ccc2Sc2ccccc21,inactive
18,CCOc1ccc(-n2cc(-c3ccc(OC)c(OC)c3)[nH]c2=S)cc1,"inconclusive: 2.82 µM [falling, partial curve]"
19,Cc1[nH]c2ccccc2c1/C=N/Nc1ccccc1[N+](=O)[O-],"inconclusive: 25.1 µM [falling, partial curve]"
20,O=c1c2c(nc3n1CCCCC3)sc1c(O)c(Br)ccc12,"inconclusive: 28.2 µM [falling, single point]"
21,COc1ccccc1C(=O)Nc1ccc(C(=O)/C=C/c2cccs2)cc1,inactive
22,Cc1ccc(-n2[nH]c(C)c(C=Nc3ccc(S(=O)(=O)Nc4nccs4)cc3)c2=O)cc1,"inconclusive: 22.4 µM [falling, single point]"
23,Cc1cnc(NC(=O)c2ccco2)s1,"inconclusive: 31.6 µM [falling, single point]"
24,CC(CC(=O)Nc1nc2ccccc2[nH]1)n1ccnc1 (centres undefined),inactive
25,Cc1ccccc1C(=O)N/N=C1\SCC(=O)N1Cc1ccco1,"inconclusive: 11.2 µM [falling, partial curve]"
